PubChem BioAssay AID485297 (National Center for Advancing Translational Sciences (NCATS), 2010)
In all, about 320,000 compounds went through this assay and about 9,100 (2.8%) were called active. This list was built around the results that the source calls inconclusive (neither active nor inactive); the mix of calls is not that of the screen. Calls follow the shape of the dose curve; as a rule, active = well fitted activation curve with a large enough effect; inconclusive = small, poorly fitted or top-dose-only effect; inactive = no such curve, though single readings can be large or run the other way. Where the call is inconclusive, the potency comes from a doubtful curve fit.

test: qHTS Assay for Rab9 Promoter Activators; settings: Huh7 Rab9 promoter-luciferase reporter, luminescence, 24 h; series mostly up to 9.22 µM; activation, negative = inhibition: at the top concentration; also: nearly all actives have a fitted effect of over 60% in size; as to activation, negative = inhibition: % of control where 0% means no effect
Summary of the method: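 Luminescence read-out: Huh7 cells stably expressing Rab9-luciferase, treated 24 h with compound at 37 °C, then lysed with luciferase reagent for 10 min at ambient before reading.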
Potency is read from the fitted curve at half-maximal effect; tags tell the direction and shape of the fitted curve.

Potency, active:
COc1ccc(NC(=O)C2COc3ccccc3O2)cc1 (configuration not stated) 3.16 µM, Cc1ccc(-c2noc(-c3ccccc3F)n2)cc1 2 µM, COc1ccc(N/C(C)=C/C(=O)c2ccccc2)cc1 2.82 µM, CN(C)c1ccc(C(=O)OCC(=O)N2CCCCCC2)cc1 3.55 µM, NNc1nc2cc3c(cc2s1)OCCO3 1.58 µM, O=C(/C=C/c1ccccc1Cl)Nc1ccccc1 0.447 µM, COc1ccc2oc(=O)c(-c3nc(C)cs3)cc2c1 2.82 µM, O=C(Nc1ccccc1)N1CC=C(c2ccc(F)cc2)CC1 1 µM, Cc1[nH]n(C(N)=S)c(=O)c1N=Nc1ccc(Br)cc1 2.82 µM

Potency, inconclusive:
CCC(=O)c1ccc(N2CCN(C(=O)c3cccs3)CC2)c(F)c1 3.55 µM [activator, partial curve], CCOc1ccc2c(=O)c(Oc3ccccc3OCC)coc2c1 6.31 µM [activator, single point], O=C(Nc1ccc(N2CCCC2)c(Cl)c1)c1ccccc1[N+](=O)[O-] 3.55 µM [activator, single point], Cc1cc(-c2c(C)[nH]n(-c3ccc(Cl)cc3)c2=O)n[nH]1 2.82 µM [activator, partial curve], COc1cc(OC)cc(C(=O)Nc2sc3c(c2C(N)=O)CCC3)c1 0.891 µM [activator, full curve, poor fit], COc1ccc(CC(=O)N2CCc3ccccc32)cc1 6.31 µM [activator, single point], COc1ccc(-n2nnnc2SCc2nc3ccccc3s2)cc1 6.31 µM [activator, single point], COc1ccc(-c2cc(C(=O)NCc3cccnc3)no2)cc1 3.98 µM [activator, partial curve], O=C(Nc1ccccc1)c1cnc[nH]1 2.51 µM [activator, partial curve], Cc1cc(/C=C2/C(=O)N(C)C(=S)N2C)ccc1N1CCCC1 5.62 µM [activator, single point], CCn1nnc(NC(=O)c2sc3ccccc3c2Cl)n1 1.26 µM [activator, full curve], COc1ccccc1/C=C/C(=O)Nc1cccnc1 3.16 µM [activator, partial curve], O=C(OCC(=O)N1CCC(Cc2ccccc2)CC1)c1ccccc1 3.55 µM [activator, partial curve], O=C(c1csc(Nc2ccccc2Cl)n1)N1CCCC1 1.58 µM [activator, partial curve], O=C(c1cc(-c2cccs2)on1)N1CCOCC1 3.55 µM [activator, single point], N#Cc1c(/N=C\c2ccc(O)c([N+](=O)[O-])c2)sc2c1CCCC2 2.82 µM [activator, partial curve], Nc1[nH]ncc1N=Nc1ccc(Cl)cc1 6.31 µM [activator, single point], CCOc1ccc(-n2nc3ccc(NC(=O)CC)cc3n2)cc1 0.562 µM [activator, partial curve, poor fit], O=c1[nH]c2ccccc2c2nc3ccccn3c12 5.62 µM [activator, single point], Cc1nc2cc(NC(=O)NCc3ccco3)ccc2n1C 3.55 µM [activator, single point], Cc1c(CCC(C)C)c(=O)n2c([nH]c3ccccc32)c1C#N 0.891 µM [activator, single point], Cc1cccc(Nc2nn3c(=O)c4ccccc4nc3s2)c1 0.708 µM [activator, full curve], CS(=O)(=O)c1ccccc1-c1nc(-c2cccc(Cl)c2)no1 1.12 µM [activator, single point], COc1ccc(CNC(=O)c2ccc(-c3ccccc3)cc2)cc1 2.82 µM [activator, partial curve], COc1ccc(NC(=O)Nc2ccc3oc(C)nc3c2)cc1 3.55 µM [activator, single point], Cc1cc(C)c2nc(N3CCN(C(=O)c4ccco4)CC3)sc2c1 5.62 µM [activator, single point], CCc1ccc(-c2nc(-c3ccncc3)no2)cc1 0.316 µM [activator, full curve, poor fit], O=C(CNC(=O)c1ccccc1F)N/N=C/c1cccs1 1.26 µM [activator, partial curve], Cc1cc(C)c2oc(-c3cccc(N)c3)nc2c1 3.16 µM [activator, partial curve], Cc1nc(-c2ccc(S(=O)(=O)N3CCCCCC3)cc2)cs1 5.62 µM [activator, single point], CC(=NC1CC1)C1=C(O)c2ccccc2C1=O 3.16 µM [activator, single point], Cc1ccc(Cn2ccc(-c3cnc(-c4ccccc4)s3)n2)cc1 2.24 µM [activator, partial curve], COc1ccc2cc(C(=O)C3CCCN(C(=O)CCc4cnn(C)c4)C3)ccc2c1 (configuration not stated) 5.62 µM [activator, single point], CC(=O)c1c(C)[nH]c(C(=O)NCCC2=CCCCC2)c1C 0.708 µM [activator, partial curve], O=c1n(Cc2ccccc2)nc2n1-c1ccccc1SC2 3.16 µM [activator, single point], CCc1cc2c(=O)c(-c3ccon3)c(N)oc2cc1OC 3.16 µM [activator, partial curve], O=C(NC(=S)Nc1ccc(F)cc1)C1CCCCC1 6.31 µM [activator, single point], Cc1c(NC(=O)c2ccc(C(C)(C)C)cc2)cccc1[N+](=O)[O-] 6.31 µM [activator, single point], CCCOc1ccc(C(=O)Nc2cccnc2)cc1 5.62 µM [activator, single point], CCn1cnc2sc(C(=O)Oc3ccc(Br)cc3)c(C)c2c1=O 3.16 µM [activator, single point], Nc1c(C(=O)C2CC2)sc2nc3c(cc12)CCC3 1.26 µM [activator, full curve], COc1cccc(/C=C/C(=O)c2ccc3c(c2)OCCO3)c1OC 3.98 µM [activator, single point], CC(CNC(=O)c1ccccc1Cl)c1ccccc1 (configuration not stated) 3.16 µM [activator, partial curve], O=C(O)c1cc(N/N=C/c2ccc(N3CCOCC3)cc2)ccc1Cl 0.316 µM [activator, partial curve], Clc1ccc(N/N=C/c2cccs2)nn1 3.16 µM [activator, single point], CNS(=O)(=O)c1ccc(NC(=O)Nc2cccc(F)c2)cc1 2.24 µM [activator, partial curve], COC(=O)c1cc(-c2ccc(C)cc2)n[nH]1 3.98 µM [activator, single point], COC(=O)[C@@H]1CCCN1C(=O)CCc1nnc(CCC2CCCCC2)o1 3.55 µM [activator, single point]

activation, negative = inhibition, inactive:
Cc1cccc(C(=O)OCC(=O)c2ccc(CC(=O)N3CCOCC3)s2)c1C -7.58%, Cn1c(O)c(C=NCC2CCNCC2)c(=O)n(C)c1=O -2.62%, CC1CCCN(CCCNC(=O)c2ccc(NC(=O)C3=CSCCO3)cc2)C1 (configuration not stated) -7.62%, Cc1cccc(C(=O)NNC(=O)CN2C(=O)c3ccccc3C2=O)c1 1.94%, COc1ccc(-c2csc(N(Cc3ccccc3)C(=O)COc3ccc(Cl)cc3)n2)cc1 -3.5%, CC(C)[C@@H](C(=O)N1CCCC1)N1C(=O)N2CCc3c([nH]c4ccccc34)[C@@]2(C)C1=O -1.21%, CCc1nc(SCCO)c2oc3ccccc3c2n1 5.49%, NC(=S)N/N=C/c1ccc(-c2ccccc2)o1 5.12%, C/C=C\C(=O)Nc1cccc(C2=NOC3(C2)C[C@@H](C(N)=O)N(C(=O)c2ccccc2)C3)c1 (some centres not stated) -10.5%, CCCCN(C)C(=O)C1CCC(CNS(=O)(=O)c2ccc3c(c2)CC(C)N3C(=O)C2CC2)CC1 (configuration not stated) -13.2%, Cc1ccc(/C=C/C(=O)Nc2ccc(S(N)(=O)=O)cc2)o1 -2.45%, O=C(COc1ccc(Br)cc1)N/N=C1\SCC(=O)N1c1ccc(F)cc1 3%, COc1c2ccoc2nc2c(OC)c(OC[C@@H](O)C(C)(C)O)ccc12 -2.77%, CC(C)(C)OC(=O)n1cc(CCO)c2ccccc21 -6.99%, c1coc(C2=Nc3cccc4cccc(c34)N2)c1 20%, CC(C)(C)NCc1cccn1-c1sc2c(c1C#N)CCCC2 0.214%, N#Cc1c(NC(=O)CSc2nnc(-c3ccccc3)o2)sc2c1CCCC2 0.6%, O=C(Nc1ccccn1)C1CCCN(c2ncnc3c2nc2n3CCCCC2)C1 (configuration not stated) -9.35%, C=CCN1C(=O)N(c2ccc(F)cc2)C(=O)C1CC(=O)Nc1ccc(Cl)cc1 (configuration not stated) -0.303%, O=C(O)c1cccc(Nc2c3ccccc3nc3ccccc23)c1 15.1%
